What is called viability is a read-out of living cells in per cent, often relative to untreated cells.

The test can be described thus: MRP1 drug-resistance reversers in H69AR cells – cell-based, doxorubicin co-treatment, primary screen (AID 602). To be noted: CellTiter-Glo, 72 h, at 10 µM. For orientation: In ATP-based viability assays light output follows the ATP content of the culture.
Setting [1] is: H69AR cells + 2 uM doxorubicin, measured here: viability with 2 uM doxorubicin, stronger effect = lower value.
The mark [2] stands for this setting: H69AR cells, measured here: cytotoxicity without doxorubicin.

The other results are listed elsewhere or left out. The main result of the screen is listed elsewhere. These columns were measured beside it and carry no call. The list favours compounds with an active or inconclusive main result.

Consider `Cc1ccc(NC(=O)N(Cc2ccc3c(c2)OCO3)Cc2cc3cc4c(cc3[nH]c2=O)OCCO4)cc1`, for which the viability by setting is: under setting [1], 29.8%; under setting [2], 85.1%.

On to `Cn1nnnc1SCC(=O)Nc1nc(-c2ccccc2)c(-c2ccccc2)o1`, for which the viability amounted to 27.9% under setting [1] and 87.7% under setting [2].

Consider `CCOc1ccccc1Nc1nc(N)nc(CN(C)C2CCCCC2)n1`, for which the viability under setting [1] worked out at 1.51% and the viability under setting [2] was found to be 81.2%.

On to `COc1cc(OC)cc(-c2nnc(SCC(=O)Nc3cc(C)on3)o2)c1`, for which the viability is, setting by setting: under setting [1], 1.55%; under setting [2], 65.9%.

As to `Cn1c(=O)c(NCCc2ccccc2)c2c3c(cccc31)C(=O)c1ccccc1-2`, the viability by setting is: under setting [1], 27.2%; under setting [2], 90.9%.

Regarding `CCOC(=O)N1CCN(C(=O)CSc2nc3c(c(=O)n2-c2ccccc2OC)SCC3)CC1`, the viability under setting [1] was 31.4% and the viability under setting [2] worked out at 88.7%.

Turning to `COC(=O)c1ccccc1NC(=O)c1cccs1`, the viability under setting [1] is 32.7% and the viability under setting [2] came out at 88.8%.

Turning to `CCOC(=O)c1c(NC(=O)OC)sc(C(=O)N(CC)CC)c1C`, the viability runs as follows: under setting [1], 2.73%; under setting [2], 79%.

Consider `COC(=O)Nc1ccc(S(=O)(=O)Nc2ccc(O)cc2)cc1`, for which the viability under setting [1] is 39.1% and the viability under setting [2] amounted to 98.8%.

Regarding `Cc1ccc(C=Nc2ccc(N(C)C)cc2)o1`, the viability came to 2.8% under setting [1] and 67.6% under setting [2].

With `N#CC1=C(N)N(c2ccc(Br)cc2)C2=C(C(=O)CCC2)C1c1cccnc1` (stereo unspecified), the viability under setting [1] was 24.1% and the viability under setting [2] is 82.9%.

`O=C(c1ccc(CS(=O)(=O)c2ccc(Br)cc2)o1)N1CCN(C2CCCCC2)CC1`: the viability was 18.4% under setting [1] and 92.4% under setting [2].

Consider `CC1CN(c2nc3c(c(=O)n(Cc4ccc(Cl)cc4)c(=O)n3C)n2C)CC(C)O1` (stereo unspecified), for which the viability is, setting by setting: under setting [1], 36.6%; under setting [2], 94%.

Consider `COc1ccc2c(Cl)c(C(=O)NCCCn3ccnc3)sc2c1`, for which the viability under setting [1] was found to be 13.2% and the viability under setting [2] was 91.8%.

Regarding `O=c1c2c3c(sc2n2cnnc2n1Cc1ccccc1)CN(Cc1ccccc1)CC3`, the viability was 18.9% under setting [1] and 83.3% under setting [2].

Take `CC(C)CCn1c(=O)c2ccccc2n2c(CN(C)Cc3ccccc3)nnc12`: the viability reads like this: under setting [1], 24.5%; under setting [2], 86.1%.

`c1ccc(N2CCN(c3ccccc3)C2c2cccnc2)cc1`: the viability came to 24.7% under setting [1] and 84.6% under setting [2].

On to `CC(C)C(=O)N1CCN(c2ccccc2NC(=O)c2cccc(Cl)c2)CC1`, for which the viability is 0% under setting [1] and 78.1% under setting [2].

Consider `Cn1c(=O)c2c(nc(CN3CCN(c4ccccc4)CC3)n2Cc2c(F)cccc2Cl)n(C)c1=O`, for which the viability is, setting by setting: under setting [1], 15%; under setting [2], 74.8%.

With `Cc1ccc(N=C(NOCc2ccc(Cl)cc2Cl)c2nonc2N)c(C)c1`, the viability is, setting by setting: under setting [1], 8.78%; under setting [2], 65.8%.

For `O=C(O)c1ccc(-n2nnnc2SCc2ccccc2)cc1`, the viability worked out at 23.9% under setting [1] and 106% under setting [2].

Take `Brc1ccc(-c2nc3ncccn3c2NC2CCCCC2)o1`: the viability runs as follows: under setting [1], 18.2%; under setting [2], 76.1%.

As for `Cn1c(=O)c2c(nc(N3CCCCCC3)n2Cc2cccc3ccccc23)n(C)c1=O`, the viability was found to be 16.2% under setting [1] and 79.8% under setting [2].

With `CCOC(=O)N1CCC(Nc2c(Nc3ccc(C)c(C)c3)c(=O)c2=O)CC1`, the viability is, setting by setting: under setting [1], 32.5%; under setting [2], 97.5%.

In the case of `Cc1nn(C)c(C)c1NC(=O)CSc1nc(C2CC2)nc2c1cnn2-c1ccccc1`, the viability under setting [1] amounted to 1.34% and the viability under setting [2] came out at 79.1%.

In the case of `Cn1ccnc1-c1nc2ccccc2[nH]c1=O`, the viability came to 13.3% under setting [1] and 95.1% under setting [2].

With `Cc1cc(/C=C(\C#N)C(=O)OCC(=O)NC(=O)NC(C)(C)C)c(C)n1CCC(C)C`, the viability runs as follows: under setting [1], 35.7%; under setting [2], 92.8%.

With `CC1=NN(C(N)=S)C(=O)C1N=Nc1ccccc1C` (stereo unspecified), the viability runs as follows: under setting [1], 1.95%; under setting [2], 92.9%.

On to `COc1ccc(C(=O)Nc2nc3ccccc3[nH]2)cc1OC`, for which the viability under setting [1] was found to be 2.43% and the viability under setting [2] amounted to 66.6%.

`Cc1ccc(C(=O)CSc2nnc(COc3cccc(C)c3)o2)cc1`: the viability came out at 1.59% under setting [1] and 93.9% under setting [2].

`Clc1cnc(N/N=C/c2cccs2)c(Cl)c1`: the viability turned out to be 1.48% under setting [1] and 82.7% under setting [2].

`CN1CCN(c2nc(-c3ccccn3)nc3ccccc23)CC1`: the viability is, setting by setting: under setting [1], 1.52%; under setting [2], 69.2%.

On to `O=C(NCc1ccccn1)c1cn(CCc2ccccc2)nn1`, for which the viability under setting [1] is 39.3% and the viability under setting [2] was 96.4%.

The record behind these values is PubChem BioAssay AID602 (SRMLSC, 2007).
